Residue numbers refer to the chain shown, from its start. The list shows a part of the results.
B1: chrX:15345595:15346132:-|three_prime_utr|ENSG00000165197|control|control|control (ssRNA)
RNA: GGGAGUUCUACAGUCCGACGAUCCAGACCAACCUUCCAUUCACACCAGCUAAGGAGUCCCUGGUUCAUUGAUGGAUGUCUUCUAGCUGCAGAUGCCUCUGCGCACCAAGGAAUGGAGAGGAGGGGACCCAUGUAAUCCUUUUGCAACAGAGGAUUGAGCAUCA
B2: chr12:76027553:76027654:-|3pUTR|ENSG00000139289|msi1|total|mutant (ssRNA)
RNA: GGGAGUUCUACAGUCCGACGAUCCUCCUGAGCCGCUGGGACUACAGGUGAAUGCCACCACGCCCGGCUGAUUUUUGUAUUUUCCGCCGAGAUGGGGUUUCACCACCGUGGUCAGGCUGUUCUCGAACUCCUGACCUCAGGUGACAACAGAGGAUUGAGCAUCA
B3: chr4:177430861:177430962:-|3pUTR|ENSG00000038002|msi1|total|mutant (ssRNA)
RNA: GGGAGUUCUACAGUCCGACGAUCUUUACUAAUUCCUUGUGCAGAGGUGGGUAUGGCAAUCCGAAGUCAAGAAAUGGGUUGUUCCGCUUGGUUUGUUUCCCUAACUUCUGAUUAACUCUCUGUAUGACAACUCUACAGAAGUUGCAACAGAGGAUUGAGCAUCA
B4: chr17:78853230:78853302:-|3pUTR|ENSG00000035862|msi1_unk|total|mutant (ssRNA)
RNA: GGGAGUUCUACAGUCCGACGAUCCUCUUCUCCUAUUUUCAUCCUGCAAGCAACUCAAAAUAUUUAAAAUAAAGUUUACAUUGCCGUUAUUUUCAAAUCUUUGCUUGAUAAGUAUUAAGAAAUAUUGGACUUGCUGCCGUAAUUCAACAGAGGAUUGAGCAUCA
B5: chr1:178442813:178442920:+|CDS|ENSG00000075391|unk|FALSE|unique (ssRNA)
RNA: GGGAGUUCUACAGUCCGACGAUCAAAGCAGACAAUAUUUUCUGGGGCGAACAUUUUGAAUUCUUCAGCCUUCCACCUCUUCAUAGUAUCACAGUUCACAUUUACAAGGAUGUGGAAAAAAAGAAAAAAAAGGACAAGAAUAAUCAACAGAGGAUUGAGCAUCA
B6: chr11:69651622:69651678:+|3pUTR|ENSG00000110092|msi1_unk|FALSE|overlapping (ssRNA)
RNA: GGGAGUUCUACAGUCCGACGAUCUUAUACCCCAAUAAUCAACUCGUUUUUAUAUUAAUGUACUUGUUUCUCUGUUGUAAGAAUAGGCAUUAACACAAAGGAGGCGUCUCGGGAGAGGAUUAGGUUCCAUCCUUUACGUGUUUACAACAGAGGAUUGAGCAUCA
B7: chr6:87085629:87085739:-|3pUTR|ENSG00000135346|unk|FALSE|unique (ssRNA)
RNA: GGGAGUUCUACAGUCCGACGAUCGUUUUACCAAGUGCUGUCUUGAUGACUGCUGAUUUUCUGGAAUGGAAAAUUAAGUUGUUUAGUGUUUAUGGCUUUGUGAGAUAAAACUCUCCUUUUCCUUACCAUACCACUUUGACACGCCAACAGAGGAUUGAGCAUCA
B8: chr15:34978960:34979061:-|3pUTR|ENSG00000198146|msi1|total|mutant (ssRNA)
RNA: GGGAGUUCUACAGUCCGACGAUCGCCCUCUGUAUCCAUGUACUCUGCAUCUGUGGAUUAAACCAAUUGCAGAUCAAAAAUAUCCGAAAAAAUAAAAAUAAUACAAAUAAAAAUACAGUAUAACAGUUAUUUAAACCGCAUUUACAACAGAGGAUUGAGCAUCA
B9: chr4:177430861:177430962:-|3pUTR|ENSG00000038002|msi1|FALSE|unique (ssRNA)
RNA: B3 RNA with C60U, C61A, C83U, C84A
B10: chr2:30910466:30910900:-|three_prime_utr|ENSG00000158089|control|control|control (ssRNA)
RNA: GGGAGUUCUACAGUCCGACGAUCUCCUUUUCCUACAAAGGAAGCAGUCUCUGGAGGCCAGAAAGAAAAGCCUUCUUUUUCACUAGGCCAGGACUACAUUGAGAGAUGAAGAAUGGAGGUUGUUUCCAAAAGAAAUAAAGAGAACAACAGAGGAUUGAGCAUCA
B11: chr22:38483724:38483825:-|3pUTR|ENSG00000100201|msi1|FALSE|bound_elsewhere (ssRNA)
RNA: GGGAGUUCUACAGUCCGACGAUCACUUAUAAUUCAGGUUCUGCUGUUGGCUUCAGAACAUGAGCAGAAGAAUCGUUUUAUGCUAGUUAUUGCAUUCAUGGUUGAAACUCAACUUAGGGAAAGGGUUCCAAUGUAUUAAGCAAUCAACAGAGGAUUGAGCAUCA
B12: chr7:77779054:77779164:+|CDS|ENSG00000187257|unk|total|mutant (ssRNA)
RNA: GGGAGUUCUACAGUCCGACGAUCUAAAUUUGAAAACCGCAACAAAGAUUUAAAGGAAGAAUUGUGCCCUGGAAAUCUAAGUCCCGUUGAUACAAGGCAACACAGUUCAGCACAUUCAAAUCAAGAUAAAAAAGACGAUGACAUCAACAGAGGAUUGAGCAUCA
B13: chr9:130136078:130136182:+|3pUTR|ENSG00000148358|msi1_unk|total|mutant (ssRNA)
RNA: GGGAGUUCUACAGUCCGACGAUCAGUCCAAGCAAAUCAUCCCCAUUAAAAAGCUUUUCCUGCCGGCCCGCCGGAUUUCUAAACCGAUGAAUUCAACAGACUUGGUCCCCACCGUCCAAGAGUAUGUAUGUGAAGAAAGUGAGCCAACAGAGGAUUGAGCAUCA
B14: chr4:56994692:56994796:+|CDS|ENSG00000047315|unk|total|mutant (ssRNA)
RNA: GGGAGUUCUACAGUCCGACGAUCAAAAACAGUCAUUAAAGAAGGUGAAGAACAACUUCAGACUCAGCAUCAGAAAACUUUUACCGGAAAAAUUCCAAUUAUGUUGCGGUCAACUUACUGCCUUUUGAAUGGCUUGACAGAUCGCAACAGAGGAUUGAGCAUCA
B15: chr19:1925360:1925461:+|3pUTR|ENSG00000227500|msi1|total|mutant (ssRNA)
RNA: GGGAGUUCUACAGUCCGACGAUCUCUCGAACUCCUGACCUCAAGUGAUCCACCCGCCUUGGCCUCCCAAAGUGCUGGGAUAACCGGUGUCAGCCACCGCGCCCAGCCUGGAGUGGCCUUUUAUGAGAGGGGACCCGUCAAAUCCAACAGAGGAUUGAGCAUCA
B16: chr10:30313878:30313980:-|CDS|ENSG00000107951|unk|total|mutant (ssRNA)
RNA: GGGAGUUCUACAGUCCGACGAUCUGUUUUUAUAUUUAAGCCCUUCAUGUACUUACUCAUUUUUUCUUCUGUGUAAUAAUCUACCGGGAAGGGAGCAAAACAAACCUGAUUCUUCUCCUCUGUACAUUCAGAAUCCAUUUGAAACAACAGAGGAUUGAGCAUCA
B17: ENSG00000198589:be:win_3751|CDS|ENSG00000198589|bound_else_gene|NA|bound_elsewhere_windowed (ssRNA)
RNA: GGGAGUUCUACAGUCCGACGAUCACAGAUACUGAGAGGCUGGAGUUGAAGGCCAGUCCCAACGUGGAAGCACCUCAACCUCAUCGACAUGUGCUUGAGAUAUCAAGGCAACAUGAGCAGCCAGGGCAAGGAAUAGCACCAGAUCAACAGAGGAUUGAGCAUCA
B18: chr2:216672738:216672882:-|3pUTR|ENSG00000115461|msi1|total|mutant (ssRNA)
RNA: GGGAGUUCUACAGUCCGACGAUCUUCUCUCCGGCUUUUGUUUCUAUUUCAAACAUACUUUCUUGGUUUUCUAAUGGAGUAUACCGUUCCGUCAUUUCACAGACUCUGGCCUCCUCUCCUGAAAUCCUUUUGGAUGGGGAAAGGCAACAGAGGAUUGAGCAUCA
B19: ENSG00000070961:be:win_5651|3pUTR|ENSG00000070961|bound_else_gene|NA|bound_elsewhere_windowed (ssRNA)
RNA: GGGAGUUCUACAGUCCGACGAUCGUUUCUAGUCUUGGUUUUGCCAUUAAUGUGCUGCAUGAUCUUGGGAAAAUCAUUUACCCUAAAUAAGGGUGGUGGACUAUCUUGAAGAACCCUUUCAACUCUAAAAAUUGACCCUAUCAACAACAGAGGAUUGAGCAUCA
B20: chr16:46710636:46710789:-|CDS|ENSG00000140795|control|control|control (ssRNA)
RNA: GGGAGUUCUACAGUCCGACGAUCGGCUUGUCCCCAUUUCUAGGGGAAACAGAUGCAGAGACCAUGAAUUUCAUUGUAAACUGUAGCUGGGAUUUUGAUGCUGACACCUUUGAAGGGCUCUCGGAGGAGGCCAAGGACUUUGUUCAACAGAGGAUUGAGCAUCA
B21: chr6:37217323:37218421:-|three_prime_utr|ENSG00000172738|control|control|control (ssRNA)
RNA: GGGAGUUCUACAGUCCGACGAUCAGUUCAAGACCAGCCUGGCCUUGGCAGCCAUGGCAAAACCCCGUCUCUACUAAAAAAAAUAGAAAAUUAGCCAGGCGUGGCGGCACACACCUGUAAUCCCAGCCACUUGAGAGGCUGAGACAACAGAGGAUUGAGCAUCA
B22: ENSG00000070961:be:win_2151|CDS|ENSG00000070961|bound_else_gene|NA|bound_elsewhere_windowed (ssRNA)
RNA: GGGAGUUCUACAGUCCGACGAUCCAUUGCUACCAAAUGUGGUAUUUUACAUCCUGGGGAAGAUUUUCUGUGCCUAGAAGGUAAAGAUUUUAACAGAAGAAUACGAAAUGAAAAAGGAGAGAUUGAGCAAGAGAGGAUAGACAACAACAGAGGAUUGAGCAUCA

Target: T1, UNK ZnF1-6 (called full-length) (human, UniProt Q9C0B0 30-357)
T1 sequence: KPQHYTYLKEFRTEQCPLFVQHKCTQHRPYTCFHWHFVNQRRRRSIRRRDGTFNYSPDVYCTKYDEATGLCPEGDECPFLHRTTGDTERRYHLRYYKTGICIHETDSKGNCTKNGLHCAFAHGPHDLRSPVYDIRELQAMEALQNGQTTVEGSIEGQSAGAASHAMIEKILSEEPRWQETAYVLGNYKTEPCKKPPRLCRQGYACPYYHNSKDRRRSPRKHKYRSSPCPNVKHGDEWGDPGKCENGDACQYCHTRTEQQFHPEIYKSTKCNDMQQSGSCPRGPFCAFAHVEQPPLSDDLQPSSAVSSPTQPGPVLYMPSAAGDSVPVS
Experiment: nsRBNS (natural sequence RNA bind-n-seq); RBNS binding buffer (assumed for nsRBNS): 25 mM Tris pH 7.5, 150 mM KCl, 3 mM MgCl2, 0.01% Triton X-100, 500 ug/ml BSA, 20 U/ml SUPERase-In, 4 C; UNK is unkempt and MSI1 is Musashi-1; names of the RNAs are library labels; protein concentration not given here; high values mean tight binding

Row | Binder | binding signal [enrichment R]
1 | B1 | 0.639
2 | B2 | 0.576
3 | B3 | 0.488
4 | B4 | 0.774
5 | B5 | 0.818
6 | B6 | 0.809
7 | B7 | 0.545
8 | B8 | 0.982
9 | B9 | 0.538
10 | B10 | 0.407
11 | B11 | 0.588
12 | B12 | 0.188
13 | B13 | 0.683
14 | B14 | 0.257
15 | B15 | 0.549
16 | B16 | 0.469
17 | B17 | 0.656
18 | B18 | 0.497
19 | B19 | 0.455
20 | B20 | 0.837
21 | B21 | 1.22
22 | B22 | 0.494
